# The supplement of paper PMC8728848
# The list shows a part of the results.
# B1: SLP (Clostridium difficile), Q183M8 (protein)
# chain: MATTGTQGYTVVKNDWKKAVKQLQDGLKDNSIGKITVSFNDGVVGEVAPKSANKKADRDAAAEKLYNLVNTQLDKLGDGDYVDFSVDYNLENKIITNQADAEAIVTKLNSLNEKTLIDIATKDTFGMVSKTQDSEGKNVAATKALKVKDVATFGLKSGGSEDTGYVVEMKAGAVEDKYGKVGDSTAGIAINLPSTGLEYAGKGTTIDFNKTLKVDVTGGSTPSAVAVSGFVTKDDTDLAKSGTINVRVINAKEESIDIDASSYTSAENLAKRYVFDPDEISEAYKAIVALQNDGIESNLVQLVNGKYQVIFYPEGKRLETKSLEHHHHHH
# What was measured:
# Assay in all cases: glycan array binding signal (z-score within array); higher = stronger binding
# Conditions in all cases: glycan notation: IUPAC condensed, linker removed
# [1] = biological target: GlcNAc(a1-4)Gal(b1-4)GalNAc
# How it was run: (§1)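 The binding signal is a Z-score computed within each array and averaged over linkers. Arrays of the same protein sequence at different concentrations or buffers were also averaged together. Data originate from 3228 arrays in the Consortium for Functional Glycomics database, kept only where the protein sequence was available.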
# [2] = biological target: GlcNAc(a1-4)Gal(b1-4)GlcNAc
# How it was run: as §1
# [3] = biological target: GlcNAc(a1-4)Gal(b1-4)GlcNAc(b1-3)Gal(b1-4)Glc
# How it was run: as §1
# [4] = biological target: GlcNAc(a1-4)Gal(b1-4)GlcNAc(b1-3)Gal(b1-4)GlcNAc
# How it was run: as §1
# [5] = biological target: GlcNAc(a1-4)Gal(b1-4)GlcNAc(b1-3)Gal(b1-4)GlcNAc(b1-3)Gal(b1-4)GlcNAc
# How it was run: as §1
# [6] = biological target: GlcNAc(a1-4)Gal(b1-4)GlcNAc(b1-3)Gal(b1-4)[Fuc(a1-3)]GlcNAc(b1-3)Gal(b1-4)[Fuc(a1-3)]GlcNAc
# How it was run: as §1
# [7] = biological target: GlcNAc(a1-6)Gal(b1-4)GlcNAc
# How it was run: as §1
# [8] = biological target: GlcNAc(b1-2)Gal(b1-3)GalNAc
# How it was run: as §1
# [9] = biological target: GlcNAc(b1-2)Man(a1-3)[GlcNAc(b1-2)Man(a1-6)]Man(b1-4)GlcNAc(b1-4)GlcNAc
# How it was run: as §1
# [10] = biological target: GlcNAc(b1-2)Man(a1-3)[GlcNAc(b1-2)Man(a1-6)]Man(b1-4)GlcNAc(b1-4)[Fuc(a1-6)]GlcNAc
# How it was run: as §1
# [11] = biological target: GlcNAc(b1-2)[GlcNAc(b1-4)]Man(a1-3)[GlcNAc(b1-2)Man(a1-6)]Man(b1-4)GlcNAc(b1-4)GlcNAc
# How it was run: as §1
# GlcNAc(b1-3)Gal = biological target: GlcNAc(b1-3)Gal
# How it was run: as §1
# [12] = biological target: GlcNAc(b1-3)Gal(b1-3)GalNAc
# How it was run: as §1
# GlcNAc(b1-3)Gal(b1-4)Glc = biological target: GlcNAc(b1-3)Gal(b1-4)Glc
# How it was run: as §1
# [13] = biological target: GlcNAc(b1-3)Gal(b1-4)GlcNAc
# How it was run: as §1
# [14] = biological target: GlcNAc(b1-3)Gal(b1-4)GlcNAc(b1-3)Gal(b1-4)GlcNAc
# How it was run: as §1
# GlcNAc(b1-3)GalNAc = biological target: GlcNAc(b1-3)GalNAc
# How it was run: as §1
# GlcNAc(b1-3)Man = biological target: GlcNAc(b1-3)Man
# How it was run: as §1
# [15] = biological target: GlcNAc(b1-3)[GlcNAc(b1-4)][GlcNAc(b1-6)]GlcNAc
# How it was run: as §1
# [16] = biological target: GlcNAc(b1-3)[GlcNAc(b1-6)]Gal(b1-4)GlcNAc
# How it was run: as §1
# [17] = biological target: GlcNAc(b1-3)[GlcNAc(b1-6)]GalNAc
# How it was run: as §1
# [18] = biological target: GlcNAc(b1-4)Gal(b1-4)GlcNAc
# How it was run: as §1
# GlcNAc(b1-4)GlcNAc = biological target: GlcNAc(b1-4)GlcNAc
# How it was run: as §1
# [19] = biological target: GlcNAc(b1-4)GlcNAc(b1-4)GlcNAc
# How it was run: as §1
# [20] = biological target: GlcNAc(b1-4)GlcNAc(b1-4)GlcNAc(b1-4)GlcNAc(b1-4)GlcNAc
# How it was run: as §1
# [21] = biological target: GlcNAc(b1-4)GlcNAc(b1-4)GlcNAc(b1-4)GlcNAc(b1-4)GlcNAc(b1-4)GlcNAc
# How it was run: as §1
# [22] = biological target: GlcNAc(b1-4)[GlcNAc(b1-6)]GalNAc
# How it was run: as §1
# [23] = biological target: GlcNAc(b1-6)Gal(b1-4)GlcNAc
# How it was run: as §1
# GlcNAc(b1-6)GalNAc = biological target: GlcNAc(b1-6)GalNAc
# How it was run: as §1
# GlcNAc3Prop(b1-4)GlcNAc = biological target: GlcNAc3Prop(b1-4)GlcNAc
# How it was run: as §1
# [24] = biological target: GlcNAc6S(b1-3)Gal(b1-4)GlcNAc
# How it was run: as §1
# Kdn(a2-3)Gal(b1-3)GalNAc = biological target: Kdn(a2-3)Gal(b1-3)GalNAc
# How it was run: as §1
# Kdn(a2-3)Gal(b1-3)GlcNAc = biological target: Kdn(a2-3)Gal(b1-3)GlcNAc
# How it was run: as §1
# Kdn(a2-3)Gal(b1-4)Glc = biological target: Kdn(a2-3)Gal(b1-4)Glc
# How it was run: as §1
# Kdn(a2-3)Gal(b1-4)GlcNAc = biological target: Kdn(a2-3)Gal(b1-4)GlcNAc
# How it was run: as §1
binder,measurement,setting,value
B1,glycan array binding signal (z-score),[1],0.025
same,glycan array binding signal (z-score),[2],-0.187
same,glycan array binding signal (z-score),[3],-0.164
same,glycan array binding signal (z-score),[4],-0.126
same,glycan array binding signal (z-score),[5],-0.18
same,glycan array binding signal (z-score),[6],0.283
same,glycan array binding signal (z-score),[7],-0.183
same,glycan array binding signal (z-score),[8],-0.072
same,glycan array binding signal (z-score),[9],-0.187
same,glycan array binding signal (z-score),[10],-0.139
same,glycan array binding signal (z-score),[11],-0.186
same,glycan array binding signal (z-score),GlcNAc(b1-3)Gal,-0.203
same,glycan array binding signal (z-score),[12],-0.108
same,glycan array binding signal (z-score),GlcNAc(b1-3)Gal(b1-4)Glc,-0.201
same,glycan array binding signal (z-score),[13],-0.205
same,glycan array binding signal (z-score),[14],-0.209
same,glycan array binding signal (z-score),GlcNAc(b1-3)GalNAc,-0.138
same,glycan array binding signal (z-score),GlcNAc(b1-3)Man,-0.202
same,glycan array binding signal (z-score),[15],-0.151
same,glycan array binding signal (z-score),[16],-0.195
same,glycan array binding signal (z-score),[17],0.651
same,glycan array binding signal (z-score),[18],-0.082
same,glycan array binding signal (z-score),GlcNAc(b1-4)GlcNAc,-0.18
same,glycan array binding signal (z-score),[19],-0.054
same,glycan array binding signal (z-score),[20],-0.08
same,glycan array binding signal (z-score),[21],-0.119
same,glycan array binding signal (z-score),[22],-0.161
same,glycan array binding signal (z-score),[23],-0.175
same,glycan array binding signal (z-score),GlcNAc(b1-6)GalNAc,-0.139
same,glycan array binding signal (z-score),GlcNAc3Prop(b1-4)GlcNAc,-0.141
same,glycan array binding signal (z-score),[24],-0.201
same,glycan array binding signal (z-score),Kdn(a2-3)Gal(b1-3)GalNAc,-0.189
same,glycan array binding signal (z-score),Kdn(a2-3)Gal(b1-3)GlcNAc,-0.162
same,glycan array binding signal (z-score),Kdn(a2-3)Gal(b1-4)Glc,-0.2
same,glycan array binding signal (z-score),Kdn(a2-3)Gal(b1-4)GlcNAc,-0.195
